{
  "source": "paper PMC11411711",
  "about": "(ACS Nano, 2024)",
  "system": "apoptotic cells in injured cortex and hippocampus",
  "experiment": "TUNEL staining",
  "conditions": "1 h, n = 10 mice",
  "data": [
    {"substance": "CAST–PEG–CS: 40 kDa 8-arm PEG scaffold modified with CAST and CS peptide (activity-based nanotheranostic) (chain 1 DPMSSTYIEELGKREVTIPPKYRELLAKC; chain 2 QEVYGAMPKGC; not fully specified; 5FAM on the added lysine; C-terminal amide; cysteine joined to the 8-arm PEG by maleimide chemistry | QSY21 on the N-terminus; Cy5 on the lysine; PEG2 spacer between K(Cy5) and GC; c)", "values": [
      {"measurement": "number of apoptotic cells (words, figure title)", "value": "reduces the number of apoptotic cells in the injured cortex and hippocampus"}
    ]}
  ]
}
